The campaign covered roughly 340,000 compounds. About 6,900 (2%) were called active. No stated cut-off is given here; in the data, active means inhibition above about 30%; inactive means below that, where a call was filed. Only a part is listed here, and it is no random draw. Entries without a call were filed so in the source.

The test concerns the target D(2) dopamine receptor (Homo sapiens) (UniProt P14416). In words: HTS Assay for Allosteric Antagonists of the Human D2 Dopamine Receptor: Primary Screen for Antagonists. Further: 0% is about no effect. To be noted: HEK293 TREx D2 cells, calcium flux, dopamine EC80; at 10 µM; stronger effect = higher value. Put shortly: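 Cells plated overnight at 30 C with tetracycline; no-wash calcium dye, 30–90 min RT; 10 s baseline; compound pinned; 180 s read; EC80 dopamine added; another 180 s read.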
UniProt P14416, sequence (P14416 whole entry, looked up): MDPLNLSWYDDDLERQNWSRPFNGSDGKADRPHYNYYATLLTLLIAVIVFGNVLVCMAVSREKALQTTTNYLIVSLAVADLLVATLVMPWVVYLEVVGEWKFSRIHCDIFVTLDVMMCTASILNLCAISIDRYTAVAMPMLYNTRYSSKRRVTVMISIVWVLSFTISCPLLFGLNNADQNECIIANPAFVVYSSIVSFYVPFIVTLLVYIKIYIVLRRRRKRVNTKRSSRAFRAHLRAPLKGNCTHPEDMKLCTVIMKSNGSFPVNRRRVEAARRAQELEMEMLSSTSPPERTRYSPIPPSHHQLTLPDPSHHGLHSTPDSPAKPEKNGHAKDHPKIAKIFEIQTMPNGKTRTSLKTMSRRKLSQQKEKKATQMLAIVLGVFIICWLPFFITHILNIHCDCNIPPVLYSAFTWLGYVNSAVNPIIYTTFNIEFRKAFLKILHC
Broadly, the inhibition is the change of the read-out against control, counted positive when it falls. For the molecule `CCc1ccc(CNC(=O)Cn2nc(C)c3nn(-c4ccc(Cl)cc4)c(C)c3c2=O)cc1`, the inhibition was -16.8%. Take `COCCNC(=O)c1ccc2c(c1)ncn2-c1cc(C)ccc1OC`: the inhibition is -2.29%.

Take `CCOc1ccc(NS(=O)(=O)c2c(C)nc3sc(CC)nn3c2=O)cc1`: the inhibition turned out to be 3.73%.

Consider `Cn1cccc1-c1cc2n(n1)CCC(=O)N2CCCC(=O)NCc1cccc(Cl)c1`, for which the inhibition was determined as 21.1%. Take `CCCc1nnc(SCc2cc(=O)c3c(C)cc(C)cc3[nH]2)n1C`: the inhibition was -1.26%. Take `CCc1nnc(NC(=O)CSc2nccn2Cc2ccc(Cl)cc2)s1`: the inhibition was found to be 2.94%. Regarding `O=C(Nc1ccc(F)cc1F)C1CCN(C(=O)c2cnn(-c3ccccc3)c2-n2cccc2)CC1`, the inhibition was determined as 0.472%. For the molecule `O=C(NCC(c1ccc2c(c1)OCO2)N1CCN(c2ccccc2)CC1)c1ccc(F)c(F)c1` (configuration not stated), the inhibition is 19.8%.

Regarding `Cc1ccc(OCCCn2c(-c3ccc(Cl)cc3)nc3ccccc3c2=O)cc1C`, the inhibition is -10.1%. With `C=CCC(CC=C)(CNC(=O)C(=O)Nc1ccc(Br)cc1)c1ccc(OC)c(OC)c1`, the inhibition is -4.97%.

For `COc1ccc(NC(=O)c2ccc(NC(=O)CCS(=O)(=O)c3cccs3)cc2)cc1Cl`, the inhibition worked out at 15.9%. The same measure for `Cc1ccc(-n2nnnc2SCC(=O)NCCc2ccccc2)cc1C`: 9.6%.

With `Cc1cc(OCc2cc(C(=O)NC3CCC3)no2)cc(C)c1Cl`, the inhibition is active: 43%. As to `CCc1ccc(NC(=O)c2cnn3ccccc23)cc1`, the inhibition is active: 41.8%.

As for `CCC(C)NC(=O)Cn1c(=O)n(-c2ccc(Cl)cc2)c(=O)c2c3c(sc21)CCCC3` (configuration not stated), the inhibition was -4.29%. As for `CCOc1ccc(N(CC(=O)OC)S(=O)(=O)c2ccc3c(c2)n(C)c(=O)c(=O)n3C)cc1`, the inhibition was 24.6%. With `Cc1ccc(C)c(N2CCN(C(=O)c3c(C)oc4nc(C)nc(N5CCOCC5)c34)CC2)c1`, the inhibition is 0.413%.

`O=C(NCCCN1CCCCC1)c1ccc2c(c1)ncn2C1CCCC1`: the inhibition is active: 30.1%. On to `CCCCC(=O)OC1=CN(Cc2ccccc2)S(=O)(=O)c2ccccc21`, for which the inhibition came to 17.9%. Regarding `O=C(O)c1ccc(Cl)c(NC(=S)NC(=O)c2cccc(COc3ccccc3)c2)c1`, the inhibition is active: 36%. Consider `COc1ccc2c(c1)c(CC(=O)Nc1c(C)cccc1C)c(C)n2C(=O)c1ccc(Cl)cc1`, for which the inhibition came out at 13.7%. The same measure for `COc1ccc(OCC(=O)NCc2ccc3c(c2)CCN3C(=O)c2cccc(C)c2)cc1`: -2.09%; for `CC(=O)N1CCCC1c1nc2ccccc2n1Cc1cccc(C)c1` (configuration not stated): 8.58%. Take `COc1cccc(NC(=O)CN(C)C(=O)CSc2nc(C)cc(C)n2)c1`: the inhibition is active: 41%. Consider `CC(C)c1ccc(C2NC(=O)c3c(sc4c3CCN(C)C4)N2)cc1` (configuration not stated), for which the inhibition came to 8.75%.

In the case of `CCc1cccc(NC(=O)CC(c2ccc(OC)cc2)N2Cc3ccccc3C2=O)c1` (configuration not stated), the inhibition is 2.46%.

Take `CCOc1ccccc1NC(=O)Cn1c(=O)n(-c2ccc(C)cc2)c(=O)c2c1cnn2C`: the inhibition was -4.78%. For the molecule `Cc1cc(C)cc(NC(=O)CCn2cnc3ccccc3c2=O)c1`, the inhibition was -21.7%.

In the case of `COc1ccc(CNC(=O)Cn2cccc2C(=O)c2ccccc2C)cc1`, the inhibition was -1.04%. Regarding `Cc1cccc(N2CCN(c3nc4ccccc4c4nnc(C)n34)CC2)c1C`, the inhibition came out at 13.1%. As for `CCN(CC)C(=O)c1sc2c(c1C)c(=O)n(-c1ccc(OC)cc1OC)c(=O)n2CC(=O)Nc1ccccc1`, the inhibition stood at 1.48%.

For the molecule `COC(=O)c1ccc(NC(=O)CC2C(=O)N(c3ccccc3)C(=O)N2Cc2cccs2)cc1` (configuration not stated), the inhibition was -8.6%.

Take `Cc1cc(C)cc(-n2ccnc2SCC(=O)Nc2ccccc2F)c1`: the inhibition is -2.45%. The same measure for `Cc1cccc(NC(=O)c2c(NC(=O)c3ccccc3)sc3c2CCC3)c1`: -2.75%; for `CSc1ncc(C(=O)NCc2cccc(C)c2)c(-c2ccccc2)n1`: -6.71%.

Consider `COc1ccccc1/C=C/C(=O)Nc1nc2n(n1)C(c1ccc(F)cc1)C=C(c1ccccc1)N2` (configuration not stated), for which the inhibition came out at 11.3%. The same measure for `Cc1ccc(OCCn2c(C3CC(=O)N(Cc4ccc(F)cc4)C3)nc3ccccc32)c(C)c1` (configuration not stated): 4.7%; for `C=CCc1ccccc1OCCSc1nc(-c2ccccc2F)nc2cc(=O)[nH]n12`: -4.96%. As for `O=S(=O)(NCC(c1ccccc1)N1CCc2ccccc21)c1ccc(Cl)cc1` (configuration not stated), the inhibition worked out at 6.24%. Then `Cc1nn(CCC(=O)Nc2cccc(C#N)c2)c(C)c1S(=O)(=O)N1CCCCC1`, with 14.3%; and `Cc1cccc(C)c1NC(=O)Cn1cc(C(=O)C2CC2)c2ccccc21`, with 7.05%. On to `COc1cccc(C(=O)Nc2nnc(S(=O)(=O)N3CCCc4ccccc43)s2)c1`, for which the inhibition was -6.89%.

On to `CCCCN(CC)CCCNC(=O)c1cn(C)c(=O)c2c1c1ccccc1n2C`, for which the inhibition came to 4.79%. Regarding `CCS(=O)(=O)NCCc1csc2nc(-c3ccc(OC)cc3)nn12`, the inhibition is 25.1%.

For the molecule `COc1ccc(OC)c(S(=O)(=O)NCCS(=O)(=O)N2CCN(c3ccccc3F)CC2)c1`, the inhibition is 5.52%. Regarding `CCc1cnc2c(c1SCc1cc(OC)cc(OC)c1)c(=O)n(C)c(=O)n2C`, the inhibition worked out at 4.82%. The same measure for `Cc1ccc(C)c(CN2C(=O)c3ccccc3S(=O)c3ccc(C(=O)N4CCCCC4)cc32)c1` (configuration not stated): -2.18%; for `CCOC(=O)c1ccc(NC(=O)CC(C)n2nc(C)cc2C)cc1` (configuration not stated): 10%. In the case of `O=C(CN1C(=O)COc2ccc(S(=O)(=O)N3CCCCCC3)cc21)N1CCN(c2ccc(Cl)cc2)CC1`, the inhibition was 4.95%.

For the molecule `COc1cc(NC(=O)Cc2noc3ccccc23)cc(OC)c1OC`, the inhibition is -3.36%. Then `COc1ccc(-c2ccc(=O)n(CC(=O)Nc3cc(OC)ccc3OC)n2)cc1`, with 5%; and `Cc1cccc(-n2ncc3c(NNC(=O)c4ccccc4Cl)ncnc32)c1`, with 3.62%. With `CCOC(=O)c1cccc(NC(=O)Nc2c(C)n(C)n(-c3ccccc3)c2=O)c1`, the inhibition is -0.918%.

Turning to `O=c1[nH]c(C2CCCN(S(=O)(=O)c3ccccc3)C2)nc2c1nnn2Cc1ccccc1Br` (configuration not stated), the inhibition is -8.18%. Consider `COc1ccc(CNC(=O)c2cc(-c3ccc(Br)s3)nc3ccccc23)cc1`, for which the inhibition is 12.4%.

As to `Cc1ccc(C)c(Nc2nn3c(=O)c4ccc(C(=O)NCc5ccccc5)cc4nc3s2)c1`, the inhibition was -14.2%.

In the case of `O=C(Nc1ccc2c(c1)OCO2)c1cc(-c2cccc(Cl)c2)on1`, the inhibition was 3.99%. For `Cc1ccc(C)c(N2CCN(C(=O)Cn3cnc4sc(C)c(S(=O)(=O)N5CCN(c6ncccn6)CC5)c4c3=O)CC2)c1`, the inhibition was -3.57%. Consider `Clc1ccc(-c2ccc(CNCC3CCCO3)o2)cc1` (configuration not stated), for which the inhibition is active: 35.2%. Take `CCOC(=O)Cn1c(C2CC(=O)N(c3ccc(C)cc3)C2)nc2ccccc21` (configuration not stated): the inhibition is -2.72%. The same measure for `CSc1cccc(NC(=S)NCCCN2CCN(c3ccc(F)cc3)CC2)c1`: active: 43%.

As for `CCC(=O)N1c2ccccc2CC1C(=O)NCCc1ccc(SC)cc1` (configuration not stated), the inhibition worked out at 2.66%.

The record behind these values is PubChem BioAssay AID485344 (National Center for Advancing Translational Sciences (NCATS), 2010).
